Data taken from the supplement of paper PMC3334620.
The full ranking holds about 33,000 sequences; the median of “E-score (-0.5 to 0.5)” is about -0.043, and the highest 2% start at about 0.37. The list shows a part of the results.

These sequences were tested against T1, Upc2 (UniProt Q12151) (assay: PBM E-score (8-mer binding enrichment) (E-score (-0.5 to 0.5)); higher = stronger / more preferred TF binding; most listed sequences are background and not binding sites). Conditions: protein concentration: 200 nM; construct: GST-full length.
T1 sequence: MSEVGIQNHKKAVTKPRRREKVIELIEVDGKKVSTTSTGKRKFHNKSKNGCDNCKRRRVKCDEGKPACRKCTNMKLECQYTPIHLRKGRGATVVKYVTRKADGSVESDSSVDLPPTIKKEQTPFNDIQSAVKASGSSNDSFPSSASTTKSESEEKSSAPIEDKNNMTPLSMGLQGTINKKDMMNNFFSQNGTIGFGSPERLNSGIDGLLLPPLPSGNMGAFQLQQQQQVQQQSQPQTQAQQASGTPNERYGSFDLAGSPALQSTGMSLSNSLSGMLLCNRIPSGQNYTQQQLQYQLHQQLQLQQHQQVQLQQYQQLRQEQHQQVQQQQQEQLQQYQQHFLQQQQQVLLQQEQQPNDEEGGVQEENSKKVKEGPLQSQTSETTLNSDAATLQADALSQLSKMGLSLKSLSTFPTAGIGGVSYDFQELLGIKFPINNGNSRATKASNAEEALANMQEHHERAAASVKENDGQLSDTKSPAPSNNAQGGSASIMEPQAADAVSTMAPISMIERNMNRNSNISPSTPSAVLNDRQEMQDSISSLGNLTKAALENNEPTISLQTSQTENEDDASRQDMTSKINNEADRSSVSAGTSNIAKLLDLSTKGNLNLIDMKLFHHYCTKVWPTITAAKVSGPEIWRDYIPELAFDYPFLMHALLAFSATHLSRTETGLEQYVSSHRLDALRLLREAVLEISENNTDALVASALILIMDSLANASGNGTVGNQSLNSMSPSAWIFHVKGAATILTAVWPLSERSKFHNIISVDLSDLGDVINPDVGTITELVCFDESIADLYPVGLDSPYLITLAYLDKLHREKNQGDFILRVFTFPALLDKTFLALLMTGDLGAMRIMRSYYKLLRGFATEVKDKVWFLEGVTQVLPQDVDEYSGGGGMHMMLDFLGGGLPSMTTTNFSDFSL
In short: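 Universal all-10-mer Agilent arrays, fresh or stripped once, were converted to double-stranded form by primer extension. GST-tagged yeast transcription factors from PURExpress in vitro transcription/translation, full-length or DNA-binding domain only, were applied at about 100-200 nM and detected with fluorescent anti-GST. After masliner normalisation, the Universal PBM Analysis Suite scored each ungapped eight-base word together with its reverse complement by E-score.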

Row | Sequence | PBM E-score
1 | AGCAGTGC | -0.138
2 | TTGCGCAA | -0.00115
3 | TAGGCGGA | -0.00475
4 | CGGTGGGC | -0.134
5 | CAACCTTG | -0.129
6 | AATTTACT | -0.0105
7 | TAGGGTCA | -0.109
8 | ACATCGAC | -0.131
9 | AACTTCGA | -0.0227
10 | CTCAGATA | 0.0252
11 | AGAACGTG | -0.00321
12 | AATAACAT | 0.0313
13 | CTTATTGC | -0.223
14 | AAGTATGT | -0.202
15 | CAGGCGCA | -0.154
16 | AGGCGCAA | 0.0208
17 | TTCCGCAA | 0.114
18 | ATCCGAAG | 0.237
19 | ATATCCCG | 0.0433
20 | CCCGGACG | -0.134
21 | ATCACCAA | -0.0318
22 | AGACCGCC | -0.168
23 | CGCATTTA | 0.0301
24 | CCCAGAGG | -0.223
25 | ATCCCACC | -0.0175

Row | Sequence | PBM E-score
26 | CTTGTAGA | -0.27
27 | CGAACTAG | 0.111
28 | CAGTTTCA | -0.223
29 | CGTCTATC | 0.0488
30 | GTACCCAC | 0.0606
31 | CATAGTAC | 0.0276
32 | GAACCCTC | -0.0534
33 | GGTTCCGA | -0.0978
34 | CTTCCGCC | -0.234
35 | ATCATTGA | -0.00619
36 | ATGAGAGC | -0.213
37 | GTATGACA | 0.153
38 | GAACTTAA | 0.127
39 | AGGCACGC | -0.0907
40 | TTAACGAA | 0.448
41 | GTTTGCTA | 0.0775
42 | CCACTATC | -0.161
43 | GTAACATA | 0.0875
44 | CCGGGGTC | -0.0755
45 | ATCAAGGC | -0.0329
46 | ATGGCTGG | -0.144
47 | ACATCCGT | 0.246
48 | CTCAGCAC | -0.0932
49 | CACCAGCA | -0.0717
50 | ACGCAACA | 0.108

Row | Sequence | PBM E-score
51 | GATCACCA | -0.0596
52 | CGGGTTGA | 0.0655
53 | CCTGGAAA | -0.0648
54 | AAACGGCC | 0.359
55 | GTTCCCTA | 0.139
56 | ACTACGAA | 0.185
57 | GCTACCTA | -0.0899
58 | GTGATGCA | -0.118
59 | GTGGAGAA | -0.163
60 | TACGCGTA | 0.321
61 | CCTTCGCA | 0.0293
62 | CGTCCGTC | -0.226
63 | AGTCCGCA | -0.156
64 | TCTTGTCA | -0.108
65 | CGATAATA | 0.0334
66 | TAAATTTA | 0.262
67 | AACGTCCG | 0.0706
68 | GATCACTA | 0.113
69 | ATGGGTAC | 0.171
70 | TAAAGCGA | 0.191
71 | AACCATCT | -0.12
72 | AGTTTAGG | -0.0592
73 | CACGATGC | 0.0841
74 | GAGCGGTA | 0.143
75 | CTTCGTCC | -0.316

Row | Sequence | PBM E-score
76 | ACAAAAGA | 0.188
77 | CGGAAAAC | 0.163
78 | CATAGATC | -0.269
79 | CGTTCGAA | 0.221
80 | AATGCAGA | -0.0923
81 | CCCCTCGC | 0.0535
82 | GGACTACA | -0.219
83 | GCTGATAA | 0.0387
84 | AACGTATA | 0.443
85 | CGCATGAG | -0.107
86 | ATTACAAT | 0.00976
87 | ATTCGTCG | 0.126
88 | TGGTGTAA | -0.0753
89 | CACTCCCA | -0.193
90 | AAACTACG | 0.212
91 | AACTAAAA | 0.0173
92 | AACTTTCT | -0.202
93 | ATTTCTCC | -0.224
94 | ATAGTAGC | 0.164
95 | AATGCGCC | 0.0488
96 | CCATTTTA | 0.0796
97 | GGAAGGCA | -0.267
98 | CGTGGCCA | -0.113
99 | GTGTGACA | -0.186
100 | GGACGGCA | -0.194

Row | Sequence | PBM E-score
101 | CGGATCGC | 0.115
102 | AGTATGGC | -0.129
103 | CTGACAAC | -0.303
104 | ATCAGGAC | -0.115
105 | AGGTTTCG | -0.0395
106 | AAGCTGAA | -0.133
107 | ATCGAGTG | 0.0718
108 | ACTTGCCG | -0.121
109 | GGAGCACC | -0.18
110 | GTTGATAA | 0.136
111 | GGCCTCCA | -0.269
112 | ACGGCTTC | 0.107
113 | GAGAATGA | 0.0733
114 | CGACCACG | 0.176
115 | CTGCAGCC | -0.00681
116 | ATCGCCGC | -0.0746
117 | GTCCGCGA | 0.0436
118 | AAGGTGCC | -0.228
119 | TAATAGCA | -0.144
120 | GCCCCCGA | -0.262
121 | ATTTCTTA | 0.132
122 | ACTGTTGG | -0.326
123 | AGACGAAT | 0.0524
124 | CGATGAAG | -0.0196
125 | AAGCATCG | 0.122

Row | Sequence | PBM E-score
126 | ATCTTCCG | 0.168
127 | ACCGATCT | -0.0555
128 | ATACAAAT | 0.117
129 | ATGATATA | -0.00615
130 | CTACTCCC | -0.242
131 | AGGTGTAT | -0.0191
132 | ATAGCACA | -9e-05
133 | ACGGTTAC | 0.313
134 | CGTAAACG | 0.473
135 | CTTGGGAC | -0.167
136 | CCGCAATC | -0.0127
137 | AGAGTCTC | -0.0957
138 | CCTTAACA | -0.0468
139 | AGGGGATA | -0.201
140 | ATTTAGTG | 0.0656
141 | ATACGAAG | 0.476
142 | AAATAAAC | 0.284
143 | CCGACAGC | -0.0399
144 | ACCGTTTC | 0.244
145 | CTACCGTA | 0.301
146 | AAGTCTGT | 0.0265
147 | GACCGCCC | 0.0325
148 | CGGGTTGC | 0.0793
149 | GCCAACGC | -0.0104
150 | GATCAATC | -0.104

Row | Sequence | PBM E-score
151 | AAACAGGA | -0.139
152 | CAGCGCTG | 0.0325
153 | CCGTAGGA | -0.0176
154 | CCCTTTAG | -0.289
155 | CTACTAGA | -0.0432
156 | AAGACGAA | 0.0751
157 | ATCTCTCC | -0.00648
158 | TAATGCAA | -0.139
159 | CAAATATG | -0.0879
160 | CTAACCAG | -0.132
161 | GCAAACCC | -0.0188
162 | GTAAGGGA | -0.024
163 | AAACGGGT | 0.344
164 | CTTAATCA | -0.0553
165 | AACGTTGC | 0.111
166 | AGCAGCGA | -0.113
167 | ACGACATA | 0.261
168 | CTAGGACA | -0.258
169 | ACAATACT | -0.00657
170 | AAGCTTCA | -0.0468
171 | CCTATAGG | -0.323
172 | CACCGCCC | 0.0439
173 | CTTGCTGA | -0.25
174 | CGCGAGTC | 0.186
175 | CGAGTGTA | 0.25

Row | Sequence | PBM E-score
176 | ACACGGAT | 0.106
177 | GCATTTGA | 0.0934
178 | AGTTCCGA | 0.11
179 | ACTTCGTC | 0.0529
180 | ACGGGGTA | 0.226
181 | CCGACTTC | -0.124
182 | TGCATAAA | -0.00425
183 | GGTTGTCA | -0.164
184 | AGGACCTC | -0.0396
185 | AAGACTCT | 0.0285
186 | GAAACGTA | 0.21
187 | CCGAGGAC | 0.234
188 | GAACAGCA | -0.0354
189 | ACAGTCGT | 0.291
190 | GTGGCGAA | -0.0326
191 | ATGACAAC | -0.0226
192 | GCTCAACA | -0.175
193 | AAGCGACT | 0.243
194 | AAAATTCC | -0.119
195 | CACGAAGC | 0.017
196 | ACTTGCCT | -0.174
197 | GTTTCCCA | -0.101
198 | GATGCGAC | 0.144
199 | CGCGGCAC | 0.0106
200 | CCGCTCAC | -0.104

Row | Sequence | PBM E-score
201 | ATCCTGCC | -0.0336
202 | ACGTTGGG | -0.0649
203 | GCTTACAC | 0.0568
204 | GGAACAAC | -0.108
205 | TCAGGAGA | -0.229
206 | CCGTAACG | 0.34
207 | GAGGGAAC | -0.0277
208 | GAGGTAAA | 0.152
209 | ACGGTATA | 0.274
210 | GGAGAGCC | -0.0506
211 | AACGTGTC | 0.0562
212 | GTGCGGCA | -0.123
213 | ACAATAGC | -0.171
214 | CCGTCTGA | -0.107
215 | CCGTTTGA | 0.331
216 | ACTTAAGA | -0.0366
217 | CTAGCCCA | -0.335
218 | AGTTCAGA | -0.0704
219 | CGCTCACA | 0.151
